This note sets out measurements from paper PMC10668032.

The list shows a part of the results. At the low end of the ranking, values are background and their order means little.

The target of this assay is SIX1-Q177R homeodomain (UniProt Q15475). Description: universal protein binding microarray. The conditions noted are these: Universal all-10-mer PBM (8x60K, AMADID 030236), 300 nM GST-tagged protein, Alexa Fluor 488 anti-GST; buffer, salt, pH and temperature not stated; high values mean tight binding; most listed sequences are background and not binding sites; double strand, one strand shown.
In the case of AGTTCTTC, the binding signal is -0.11 E-score.
Take TCGCAACA: the binding signal is -0.0369 E-score.
Regarding GATGTTGC, the binding signal is -0.193 E-score.
As for AACGTCCG, the binding signal is -0.00294 E-score.
Regarding GATTCCCA, the binding signal was -0.16 E-score.
As to CAAAACAG, the binding signal is -0.0244 E-score.
Regarding TAACGTGA, the binding signal was -0.134 E-score.
For TGCAGGCA, the binding signal is -0.0365 E-score.
Take AGACGTTG: the binding signal was -0.167 E-score.
Take GGGTCCCA: the binding signal was 0.152 E-score.
Turning to AAGCAAAG, the binding signal was -0.0891 E-score.
ATTAAGAG: the binding signal was found to be 0.0363 E-score.
The same measure for CAAAACAA: -0.232 E-score; for GTTATTCA: -0.175 E-score.
As for ACATGCGC, the binding signal is -0.185 E-score.
As for ATCTCGTA, the binding signal is -0.0887 E-score.
For the sequence CACAGGGA, the binding signal was 0.108 E-score.
In the case of AGGCCCGC, the binding signal was -0.362 E-score.
On to AGACAATG, for which the binding signal is -0.0882 E-score.
Turning to AGGTAGTG, the binding signal turned out to be 0.249 E-score.
Consider GATAGCTA, for which the binding signal was -0.167 E-score.
In the case of AGGCGCTG, the binding signal is -0.149 E-score.
Consider GGGAGTTA, for which the binding signal turned out to be 0.208 E-score.
As to CATAAACC, the binding signal amounted to 0.0349 E-score.
The same measure for CATGCCGG: -0.0475 E-score.
As to AGTTTTTG, the binding signal is -0.00647 E-score.
As to CCGCCTCC, the binding signal is -0.157 E-score.
Regarding ACCGAACT, the binding signal turned out to be 0.0192 E-score.
As for AAGATGCT, the binding signal was -0.296 E-score.
Regarding GATGATAC, the binding signal came to 0.242 E-score.
For the sequence TAACAAAA, the binding signal is -0.21 E-score.
In the case of ACTGACAG, the binding signal is -0.212 E-score.
Turning to CCAAGTCC, the binding signal is -0.176 E-score.
On to CTGTACAC, for which the binding signal came to 0.412 E-score.
The same measure for CTCTCGCC: -0.239 E-score; for CAACATAG: -0.0916 E-score.
Take CACGTTAC: the binding signal came out at 0.179 E-score.
As for ATTCTATA, the figure is -0.109 E-score.
As for ACCTATCC, the figure is 0.0324 E-score; as for ACGCCACA, 0.134 E-score.
As for ACCGAAGG, the binding signal came out at 0.0855 E-score.
Turning to GCCAGCCC, the binding signal was -0.0722 E-score.
Turning to ATCCGAGA, the binding signal was 0.00829 E-score.
Turning to AGATCGTG, the binding signal is 0.0176 E-score.
Regarding AACAAGTC, the binding signal was -0.346 E-score.
Consider CACATAGC, for which the binding signal was -0.0235 E-score.
Consider GAGAGCCC, for which the binding signal was -0.186 E-score.
Consider CCAGACAG, for which the binding signal was -0.0536 E-score.
As to GATGCAAC, the binding signal is -0.0637 E-score.
Regarding CATCTATA, the binding signal was -0.0927 E-score.
As for ATTCTTGA, the binding signal was -0.0493 E-score.
For AAGGAAGG, the binding signal is -0.075 E-score.
As for ACCAGTGC, the figure is 0.119 E-score; as for CGATATGA, -0.208 E-score.
As to CACTCTGA, the binding signal stood at 0.239 E-score.
For CGTCTTAG, the binding signal is -0.144 E-score.
As for ATTTAACG, the binding signal was -0.218 E-score.
Turning to CCGCGAAC, the binding signal is 0.118 E-score.
As for TAGCGACA, the binding signal worked out at 0.172 E-score.
In the case of AACATCCT, the binding signal is -0.263 E-score.
As for CCAGAGAG, the figure is -0.146 E-score; as for GACGTTAC, -0.0764 E-score.
For the sequence GATGTACC, the binding signal was 0.12 E-score.
For TGTTCTAA, the binding signal turned out to be 0.0882 E-score.
As to GACCGATC, the binding signal was -0.224 E-score.
The same measure for AGCGCACT: -0.0305 E-score; for GGGACCAA: -0.273 E-score.
On to ATGTAATC, for which the binding signal was -0.0727 E-score.
As to TAAGACTA, the binding signal turned out to be 0.0576 E-score.
As for CACGAGAA, the figure is 0.202 E-score; as for CCACCGGC, 0.0601 E-score.
On to CCCGGCAC, for which the binding signal was 0.0771 E-score.
On to CACTAACA, for which the binding signal worked out at 0.284 E-score.
In the case of TAGTTACA, the binding signal stood at 0.249 E-score.
The same measure for GCATTTCA: -0.214 E-score.
In the case of CCGCAAAC, the binding signal worked out at 0.0835 E-score.
Consider CCGTAACC, for which the binding signal was -0.155 E-score.
Regarding AAGCTGCT, the binding signal is -0.19 E-score.
For TGCTATAA, the binding signal is -0.105 E-score.
As to ACTCGTTA, the binding signal was found to be 0.0117 E-score.
As for AGCCAACT, the figure is -0.116 E-score; as for GCCGGAGA, -0.187 E-score; as for GAACAACA, 0.114 E-score.
Regarding CAGACGAA, the binding signal was -0.23 E-score.
On to GCAAAGAA, for which the binding signal is -0.0975 E-score.
For CGGGGATC, the binding signal worked out at 0.212 E-score.
As to CGACGATC, the binding signal is -0.0476 E-score.
As to CACACCGA, the binding signal was 0.405 E-score.
In the case of CAGGCTCC, the binding signal was -0.167 E-score.
In the case of ACCCTCTG, the binding signal is 0.136 E-score.
As for AACTTGAC, the binding signal was -0.109 E-score.
In the case of AGTGCTAC, the binding signal was 0.0178 E-score.
As to ATTCCCCC, the binding signal is -0.0313 E-score.
The same measure for ACTCGCCA: 0.0406 E-score; for GCCCGGTA: 0.00312 E-score.
Consider GTAGGATA, for which the binding signal came to 0.0821 E-score.
For AAGATGTA, the binding signal is -0.132 E-score.
TGTGCACA: the binding signal came out at 0.21 E-score.
For CCTTGTAA, the binding signal was 0.244 E-score.
For AATTTAAC, the binding signal was -0.0313 E-score.
For the sequence CCATCATA, the binding signal was -0.197 E-score.
Turning to CAAAACCG, the binding signal is -0.077 E-score.
With AAATAGTC, the binding signal is -0.186 E-score.
On to ATCGAGGG, for which the binding signal amounted to 0.167 E-score.
In the case of GAGATATA, the binding signal stood at 0.0915 E-score.
Turning to TGACCCCA, the binding signal worked out at 0.279 E-score.
In the case of CTACAGAG, the binding signal is -0.0145 E-score.
In the case of ATGGGATA, the binding signal is 0.0848 E-score.
With CTAGTGAG, the binding signal was -0.0634 E-score.
On to CAGGCATC, for which the binding signal was -0.111 E-score.
As to CAAGTTAG, the binding signal was 0.12 E-score.
Turning to CCGCGTAG, the binding signal was 0.126 E-score.
The same measure for AATACTGC: -0.183 E-score; for ATGAGGCA: -0.037 E-score; for ACTGCCAG: -0.204 E-score.
As for CATGTTAG, the figure is -0.236 E-score; as for CCTTACAG, -0.0896 E-score.
Consider AAGTTTCG, for which the binding signal is -0.161 E-score.
As to CGAGTGTC, the binding signal is 0.415 E-score.
In the case of ATACGGGA, the binding signal turned out to be 0.0651 E-score.
Take TAGACCCA: the binding signal is -0.0384 E-score.
As for AACCAGGG, the binding signal stood at 0.0694 E-score.
On to AGACTAAG, for which the binding signal was -0.101 E-score.
As for AACTTTTG, the figure is -0.227 E-score; as for AGGCGCCT, -0.126 E-score; as for AAGTGACG, -0.128 E-score.
For AGACAAGC, the binding signal was -0.163 E-score.
In the case of TCCAATCA, the binding signal is -0.188 E-score.
For the sequence AACGCCCC, the binding signal is 0.0426 E-score.
As to AGTTCGGA, the binding signal came to 0.0146 E-score.
AGAATGCC: the binding signal is -0.253 E-score.
For TATCGGCA, the binding signal was 0.0996 E-score.
As for AAGATAGG, the figure is -0.117 E-score; as for GAGGCTAA, -0.152 E-score.
As for AGCGTCGA, the figure is -0.15 E-score.
Consider AAGGCGCT, for which the binding signal was -0.0159 E-score.
Turning to ATTACATG, the binding signal was -0.253 E-score.
Regarding GAGTAGCA, the binding signal is 0.0939 E-score.
In the case of GTTCATTA, the binding signal was 0.0345 E-score.
As for CCTTAGTA, the figure is 0.114 E-score; as for CGATCCTA, 0.0686 E-score.
On to TGTGACAA, for which the binding signal stood at 0.0601 E-score.
In the case of GCAAGCCA, the binding signal was -0.0822 E-score.
As for CCGAGATA, the binding signal stood at 0.0859 E-score.
Consider AGTTGAGA, for which the binding signal was -0.172 E-score.
For CTACGTAA, the binding signal is -0.167 E-score.
With GAACTTTA, the binding signal is -0.205 E-score.
As to CCACAGTC, the binding signal was -0.129 E-score.
As to CTTTCCTC, the binding signal is -0.0341 E-score.
Regarding ACAGTACC, the binding signal is -0.0393 E-score.
In the case of ACCTTGCG, the binding signal is 0.0281 E-score.
With ACACTCGT, the binding signal was found to be 0.351 E-score.
The same measure for GTACTATA: 0.129 E-score; for AGACAACA: 0.0988 E-score.
On to CCAACACC, for which the binding signal was 0.47 E-score.
Consider AGGCATCA, for which the binding signal is -0.241 E-score.
ACGAAACG: the binding signal is -0.0859 E-score.
As for ATGACCAA, the figure is -0.319 E-score.
On to CCCGAACG, for which the binding signal came to 0.114 E-score.
Regarding GAACGATC, the binding signal was -0.169 E-score.
The same measure for GTCACAAA: 0.125 E-score; for ATCCGGAA: -0.0907 E-score.
For the sequence CTAACAAA, the binding signal was -0.111 E-score.
In the case of CCACACAC, the binding signal came out at 0.271 E-score.
For ACGCACCC, the binding signal is 0.265 E-score.
As to CTATCAGA, the binding signal was -0.0198 E-score.
In the case of AGAAAACA, the binding signal came out at 0.192 E-score.
For the sequence GAGAATCC, the binding signal was -0.185 E-score.
Regarding CCGAGGAG, the binding signal was determined as 0.135 E-score.
As for CTATGGTC, the figure is -0.193 E-score; as for ACTACATA, -0.0871 E-score; as for AGACGGCA, -0.0354 E-score.
